Reference: article PMC6919601, “Identification of Plasmodium dipeptidyl aminopeptidase allosteric inhibitors by high throughput screening” (PLoS ONE, 2019)
About 230 (0.21%) of roughly 110,000 compounds showed an effect of 50% or more. This is one part of the list.

Target: DPAP1 (Plasmodium falciparum, UniProt Q8IIJ9)
Test: primary screen, percent inhibition; read by cleavage of a fluorogenic dipeptide substrate; higher = more effect of the substance
Parameters: species or system P. falciparum D10 trophozoite lysates; single well
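Note: 30 min substrate incubation versus DMSO and 10 µM JCP410 controls.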

DPAP1, sequence (Q8IIJ9 whole entry, looked up): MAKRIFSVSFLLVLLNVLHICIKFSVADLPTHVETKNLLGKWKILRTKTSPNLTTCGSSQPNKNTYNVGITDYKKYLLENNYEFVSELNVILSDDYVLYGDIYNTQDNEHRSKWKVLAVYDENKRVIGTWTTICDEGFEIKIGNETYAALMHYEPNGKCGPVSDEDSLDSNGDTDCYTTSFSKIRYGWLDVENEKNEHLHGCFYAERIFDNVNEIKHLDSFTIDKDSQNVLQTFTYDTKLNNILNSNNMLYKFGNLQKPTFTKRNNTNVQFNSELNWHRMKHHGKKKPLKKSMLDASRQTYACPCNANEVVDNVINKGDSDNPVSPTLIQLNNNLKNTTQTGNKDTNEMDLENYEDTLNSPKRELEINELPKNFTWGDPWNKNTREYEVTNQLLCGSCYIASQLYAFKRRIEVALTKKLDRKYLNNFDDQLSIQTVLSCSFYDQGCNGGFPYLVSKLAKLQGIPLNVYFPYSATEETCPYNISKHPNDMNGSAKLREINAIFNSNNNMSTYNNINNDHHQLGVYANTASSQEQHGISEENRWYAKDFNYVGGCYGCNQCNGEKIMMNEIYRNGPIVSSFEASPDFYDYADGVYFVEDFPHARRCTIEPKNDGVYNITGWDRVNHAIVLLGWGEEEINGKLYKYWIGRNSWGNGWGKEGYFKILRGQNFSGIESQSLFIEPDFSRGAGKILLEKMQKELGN

| SMILES | % Inhibition @ 10 uM [%] |
| --- | --- |
| Cc1ccc(-n2c(Cc3cccn3C)nnc2SCC(=O)Nc2nnc(C)s2)cc1 | -2.19 |
| COC(=O)c1ccc(N2CCCC2=O)cc1 | -5.57 |
| COc1ccc(C(=O)N2CCN(c3ccccn3)CC2)cc1OC | -3.21 |
| O=C(CCCN1C(=O)CSc2ncccc21)N1CCN(c2ccccn2)CC1 | 1.03 |
| COc1ccc(CN2CCN(Cc3ccc(F)cc3)CC2)c(OC)c1OC | 0.931 |
| COc1ccc(C(=O)NC(c2ccc(OC)cc2)c2cc(Cl)c3cccnc3c2O)cc1 (stereo not shown) | 0.219 |
| CCOCCCNC(=O)CNC(=S)N(Cc1ccc(C)cc1)Cc1ccco1 | -2.14 |
| COc1ccc(C2CC(=O)NC3=C2C(=O)CCC3)cc1Cl (stereo not shown) | -1.92 |
| O=C(CNS(=O)(=O)c1ccccc1)Nc1ccc(Br)cc1 | -0.318 |
| CCOc1ccc(C(=O)N(CCCN(C)C)c2nc3ccc(C)cc3s2)cc1 | -2.95 |
| COc1cc(C(=O)N2CCN=C2c2ccccc2)cc(OC)c1OC | 1.26 |
| Fc1ccc(N2CCN(Cc3ccccc3C(F)(F)F)CC2)cc1 | -2.78 |
| O=c1oc2ccccc2c(N2CCN(Cc3ccccc3)CC2)c1CN1CCCC1 | -3.34 |
| CC(C)(C)c1cc(C(F)(F)F)n2ncnc2n1 | -2.14 |
| O=C(Nc1ccc(CN2CCOCC2)cc1)c1ccco1 | -1.04 |
| CCOC(=O)N1CCN(C(=O)CSCC(=O)Nc2nc(-c3ccc(OC)cc3)cs2)CC1 | 2.03 |
| O=C(NCc1cccnc1)c1cc(-c2ccc(Br)cc2)n[nH]1 | -3.88 |
| Cc1nn(-c2ccccc2)c2sc(C(=O)N(C)c3ccccc3)cc12 | -7.18 |
| CC(=O)c1cccc(N2C(=O)C3C4CCC(C4)C3C2=O)c1 (stereo not shown) | -4.88 |
| Cc1cc(C)c(CN2CCCN(Cc3cc(C)ccc3C)S2(=O)=O)c(C)c1 | 0.882 |
| COc1cccc(-c2[nH]nc3c2C(c2cc(OC)c(OC)c(OC)c2)C(C#N)=C(N)O3)c1 (stereo not shown) | -5.63 |
| N#Cc1ccccc1C(C(N)=O)(c1ccccc1)c1ccccc1C#N | 2.26 |
| CCN(C(=O)CCCOc1ccc(Cl)cc1Cl)c1ccccc1 | -7.06 |
| CN1CCN(c2nc(-c3ccc(C(=O)NC4(C(=O)N[C@@H]5C(=O)N[C@@H]5Oc5ccccc5)CCCCC4)cc3)cs2)CC1 | -4.72 |
| c1nc(N2CCCC2)c2sc3nc(N4CCCCC4)c4c(c3c2n1)CCCC4 | -1.33 |

| SMILES | % Inhibition @ 10 uM [%] |
| --- | --- |
| Cn1c(=O)c2c(nc3n2CCS3)n(C)c1=O | -0.946 |
| CCOC(=O)c1c(-c2ccccc2)csc1NC(=O)c1cc(-c2ccc3c(c2)OCO3)on1 | 7.9 |
| COc1ccccc1/C=C1/C(=O)ON=C1C | 3.47 |
| Cc1cc(-c2ccc(C)o2)c(C#N)c(S)n1 | 39.9 |
| COc1ccc(C2=CC(c3ccc(F)c(Br)c3)n3nnnc3N2)cc1 (stereo not shown) | 1.73 |
| Cc1cc(C)cc(NS(=O)(=O)c2ccc(NC(=O)Nc3ccccc3)cc2)c1 | 4.11 |
| CCOC(=O)N1CCC(N2Cc3cccc(C(=O)N4CC(C)CC(C)C4)c3C2=O)CC1 (stereo not shown) | 1.23 |
| Cc1ccccc1CN1CCCC(O)C1 (stereo not shown) | 3.84 |
| C=CCN1C(=O)N/C(=C/c2cc(Br)c(OCC(=O)O)c(OC)c2)C1=O | -8.26 |
| O=C(Cn1nnc2ccccc21)NCc1ccccc1 | 3.87 |
| CC(=O)Nc1ccc(-n2cc(C(C)=O)c(=O)[nH]c2=O)cc1 | 2.09 |
| O=C1OC(c2cccc(F)c2)=N/C1=C\c1cccc2ccccc12 | 1.25 |
| COC(=O)c1ccc(OCC(=O)c2c(O)cc(O)cc2O)cc1 | -9.55 |
| O=C(CN1C(=O)CSc2ncccc21)NC1CCN(Cc2ccccc2)CC1 | 1.03 |
| COc1nccc(Nc2ccccc2)c1C#N | 1.9 |
| Fc1ccccc1OCCCN1CCCCC1 | -1.05 |
| CCOc1ccc(CCNC(=O)C2CCCN(c3ncnc4c3nc3n4CCCCC3)C2)cc1 (stereo not shown) | 7.2 |
| CP(=O)(O)C(c1ccccc1)C(F)(F)C(F)(F)C(F)(F)F (stereo not shown) | 4.1 |
| O=C1/C(=C/c2ccc(O)cc2)Sc2ccccc21 | -1.03 |
| CCc1nnc(NC(=O)C2CCCN(c3ncnc4onc(C)c34)C2)s1 (stereo not shown) | 3.7 |
| COc1ccc(CCNC(=O)CSc2nnc(-c3ccco3)c(-c3ccco3)n2)cc1OC | -0.386 |
| COC(=O)c1sccc1NC(=S)N1CCN(Cc2ccccc2)CC1 | -3.48 |
| CC1=C(C(=O)Nc2ccccc2C)C(c2cccs2)n2c(s/c(=C/c3cnn(C)c3C)c2=O)=N1 (stereo not shown) | -1.79 |
| CC1(C)C(C(=O)Nc2ccc(Br)cc2)C1(C)C | -0.13 |
| O=C(/C=C/c1ccc(Br)cc1)N1CCN(c2ccc([N+](=O)[O-])cc2)CC1 | 5.31 |

| SMILES | % Inhibition @ 10 uM [%] |
| --- | --- |
| Cc1c2cnn(CC(=O)N3CCN(C4CCCCC4)CC3)c(=O)c2c(C)n1Cc1ccccc1 | 2.84 |
| CC1CC(C)(C)NC(=S)N1CC(=O)NC(c1ccccc1)c1ccccc1 (stereo not shown) | -8.38 |
| CCC(C)N(CCNS(=O)(=O)c1cc(-c2cc(C)no2)ccc1C)Cc1cccs1 (stereo not shown) | 4.06 |
| COc1cccc(/C=C2\N=C(c3cccc(OC)c3)OC2=O)c1 | -8.16 |
| Cc1cc(C(=O)NCc2ccc(Cl)cc2)[nH]n1 | 1.06 |
| Cc1ccc2onc(CC(=O)Nc3cccc(C)n3)c2c1 | -1.08 |
| N#Cc1c(NC(=O)CCc2ccccc2)sc2c1CCCC2 | 15.5 |
| CCOc1ccc(-c2nc3n(c(=O)c2C#N)CCS3)cc1 | -2.68 |
| CCOCCCNC(=O)CCNS(=O)(=O)c1ccc(C)cc1 | -3.94 |
| CC(Sc1ccccc1)C(=O)NCc1ccco1 (stereo not shown) | -1.81 |
| CC(C)CC(=O)NC1(C(F)(F)F)N=C2SCCN2C1=O (stereo not shown) | -3.33 |
| COCCNc1nc(S)nc2cc(OC)c(OC)cc12 | 0.708 |
| O=C1c2[nH]nc(-c3ccccc3O)c2C(c2ccc(O)cc2)N1Cc1ccc(F)cc1 (stereo not shown) | 1.67 |
| COc1ccccc1S(=O)(=O)Cc1ccc(C(=O)N2CCC(Cc3ccccc3)CC2)o1 | -4.96 |
| COc1ccc(C2C3=C(CC(C)(C)CC3=O)N(CC(=O)O)C3=C2C(=O)CC(C)(C)C3)cc1 | -4.12 |
| Cc1ccc(-c2ccc(C3C(C#N)=C(N)OC4=C3C(=O)CC(C)(C)C4)o2)cc1 (stereo not shown) | -0.864 |
| Cc1ccc(C2=NS(=O)(=O)N(C)C(C(=O)NCCCN3CCOCC3)=C2)cc1 | 2.32 |
| O=C(O)CCCCCNC(=O)/C(=C/c1ccc2c(c1)OCO2)NC(=O)c1ccco1 | 7.1 |
| CN1CCN(C(=O)Cn2ncc3c4ccccc4n(C)c3c2=O)CC1 | 1.41 |
| CCN(CC)C(=O)C1CC(c2cc(OC)c(OC)c(OC)c2)=NO1 (stereo not shown) | -5.79 |
| CCC(=O)Nc1ccc(S(=O)(=O)N2CCC(C)CC2)cc1 | -0.413 |
| C=CCn1c2nc3ccccc3nc2c2cccc(C)c21 | -5 |
| Cc1cc(NS(=O)(=O)c2ccc(NC(=O)C3c4ccccc4Oc4ccccc43)cc2)nc(C)n1 | -0.996 |
| Cc1ccc(-n2nc3c(N4CCC(C(=O)N5CCOCC5)CC4)nnc(C)c3c2C)cc1 | 5.2 |
| O=C(CN1C(=O)S/C(=C\c2ccc(F)cc2)C1=O)Nc1ncc(Cc2ccccc2Cl)s1 | 5.7 |

| SMILES | % Inhibition @ 10 uM [%] |
| --- | --- |
| CC1=C(C(=O)Nc2ccccn2)C(c2cccnc2)n2nnnc2N1 (stereo not shown) | 1.84 |
| Clc1ccc(C2NCCc3c2[nH]c2ccccc32)cc1Cl (stereo not shown) | 1.66 |
| Cc1ccc(/C=C/C(=O)O)cc1S(=O)(=O)NCCCO | 21.7 |
| Cc1cc(=O)n2nc(N3CCC(C(=O)N4CCC5(CC4)OCCO5)CC3)sc2n1 | 3.3 |
| CC(C)CC(NC(=O)c1ccc(NC(=O)N(C)C)cc1)C(=O)NCC#N (stereo not shown) | -9.15 |
| Cc1nn(-c2ccccc2)c(S)c1/C=N/c1ccc([N+](=O)[O-])cc1 | 23.3 |
| CC1CCC(C(C)C)C(OCC(O)CN2C(C)CCCC2C)C1 (stereo not shown) | 2.16 |
| CC1=C(C(=O)Nc2cccc(C)c2C)C(c2ccc(Cl)cc2Cl)NC(=O)N1 (stereo not shown) | -14.2 |
| Cc1cc(C)cc(NC(=O)COc2ccc(Cl)cc2Cl)c1 | -3.44 |
| CC(C)C[C@H](NC(=O)c1ccc(N2CCOCC2)cc1)C(=O)NC1(C#N)CCOCC1 | 13.6 |
| Cc1ccc(N2C(=O)C3ON=C(C(=O)c4ccc(Cl)cc4)C3C2=O)cc1 (stereo not shown) | -0.303 |
| CC1=CC(C)C(C(=O)O)C(C(=O)Nc2ccccc2)C1 (stereo not shown) | -4.26 |
| Cc1ccc(-c2onc(C)c2C)cc1S(=O)(=O)NC1CCCCCC1 | -8.07 |
| Cc1ccc(NC(=O)/C=C/C(=O)O)c(Br)c1 | 1.41 |
| CSc1ccc(C2C(C(=O)OCc3ccccc3)=C(C)N=C3SC(C)C(=O)N32)cc1 (stereo not shown) | 5.44 |
| COCCNC(=O)c1cc2oc3ccccc3c2n1C | -2 |
| CS(=O)(=O)N1CCC(C(=O)Nc2ccc(Br)cc2)CC1 | 0.812 |
| CC(C)c1ccccc1OCC(=O)N1CCN(C(=O)COc2ccccc2C(C)C)CC1 | 3.01 |
| c1ccc(CN2CCC(NCCN3CCCCC3)CC2)cc1 | -3.6 |
| CC(=O)Nc1ccc(N2C(=O)CC(NCCc3ccccc3)C2=O)cc1 (stereo not shown) | 0.24 |
| O=C(Nc1ccc2c(c1)OCO2)c1ccc(F)cc1 | -5.84 |
| Oc1cccc2ccc(N3CCCCC3)nc12 | 4.88 |
| Nc1c(C(=O)Nc2ccc(F)cc2)sc2nc3c(cc12)CCCCC3 | 41.5 |
| CCN(CC)C(=O)c1ccccc1NC(=O)c1ccco1 | -1.11 |
| Cc1ccc2oc(=O)c3cnn(CC(=O)n4c(C)cc5ccccc54)c3c2c1 | -5.25 |
